The values that follow come from PubChem BioAssay AID463173 (ICCB-Longwood Screening Facility, Harvard Medical School, 2010).

The campaign covered roughly 52,000 compounds. About 1,700 (3.3%) were called active. Cut-off read from the data, not from the text of the source: active = survival mostly below about 52% (no sharp cut-off); inactive = mostly above about 56%. The list shows a part of the results.

For this test, the system named is Wild type. The test is described as follows: growth inhibition of S. aureus wild type versus tarO mutant, primary screen, teichoic acid synthesis inhibitors, RN4220, OD600 (AID 463173). The conditions noted are these: S. aureus RN4220 wild type/DeltatarO growth, OD600, 18 h, active compounds read low, screened at 18.75 µg/mL (by protocol).
For `COc1ccc(CCNC(=S)N(Cc2ccco2)Cc2cc3cc(OC)c(OC)cc3[nH]c2=O)cc1OC`, the survival was inactive: 104%.
`CCOc1ccc(N2CC(c3nc4ccccc4n3Cc3cccc(C)c3)CC2=O)cc1` (stereo not drawn): the survival is inactive: 46%.
For `O=[N+]([O-])c1cc(-c2nc(-c3ccccc3)no2)ccc1NCCc1ccccc1`, the survival is inactive: 85%.
`Cc1ccc2nc(N(Cc3cccnc3)C(=O)c3cccs3)sc2c1`: the survival was inactive: 68%.
Turning to `CCCn1c(CCC(=O)Nc2cccc(CC)c2)nc2cccnc21`, the survival is inactive: 78%.
`CC1CCCN(c2ccc(C(=O)NCc3ccccc3)cn2)C1` (stereo not drawn): the survival is inactive: 103%.
Regarding `COc1ccc(-n2c(=O)c3sc4ccccc4c3n(CC(=O)NCc3ccccc3)c2=O)cc1`, the survival is inactive: 87%.
Regarding `CCOc1ccc2[nH]c(=O)c(CN(CC3CCCO3)C(=O)N(CC)CC)cc2c1` (stereo not drawn), the survival was inactive: 108%.
Turning to `Cc1ccccc1CNC(=O)c1ccc(CS(=O)Cc2ccc(Cl)cc2)o1` (stereo not drawn), the survival is inactive: 81%.
`CCn1c(CC2C(=O)N(C)c3ccccc32)nc2ccccc2c1=O` (stereo not drawn): the survival is inactive: 83%.
As to `COc1ccc(Cl)cc1NC(=O)CSc1nc(-c2ccccc2)c2ccccc2n1`, the survival was inactive: 80%.
Regarding `O=C(Nc1cccc(F)c1)[C@@H](c1ccccc1)N1Cc2ccccc2C1=O`, the survival was inactive: 38%.
As for `Cc1nn(C(C)(C)C)c(OC(=O)c2cccc(F)c2)c1Sc1ccccc1`, the survival was inactive: 62%.
Take `CC(C)CC(C(=O)NCCc1ccccc1)N1Cc2ccccc2C1=O` (stereo not drawn): the survival is inactive: 85%.
Next, `CCc1ccc(NC(=O)CCCn2nc(C)c3c(C)n(-c4ccccc4)nc3c2=O)cc1`: inactive: 88%; `CCCSc1nnc2n(-c3ccc(OC)cc3)c(=O)c3c4c(sc3n12)COC(C(C)C)C4` (stereo not drawn): inactive: 80%; `CCOc1ccc(CNC(=O)C2CCN(Cc3cc4ccccc4n3Cc3ccccc3C)CC2)cc1`: inactive: 60%.
For the molecule `CC(=O)Nc1ccc2nc(SCCOc3ccccc3)sc2c1`, the survival is inactive: 87%.
With `Cc1ccc(NC(=O)C(=O)NCCCN2CCOCC2)cc1C`, the survival is inactive: 87%.
Regarding `Cc1cccc(NC(=O)C2(C)Cc3ccccc3C(=O)O2)c1` (stereo not drawn), the survival is inactive: 107%.
For `COc1cc(C)c2c(=O)c(-c3nc(C)cs3)coc2c1`, the survival is inactive: 115%.
With `Cc1c(CNC2CCCCCC2)c(C(=O)O)c(C)n1Cc1ccc(F)cc1`, the survival was inactive: 98%.
For the molecule `CCc1ccc(CN(Cc2ccco2)C(=O)COc2ccc(Cl)cc2C)cc1`, the survival is inactive: 80%.
For the molecule `Cc1cc(C)cc(NC(=O)CCS(=O)(=O)c2ccc3c(c2)oc(=O)n3C)c1`, the survival was inactive: 72%.
As for `COC(=O)c1ccc2c(=O)n(CCCCCC(=O)NC(C)C)c(=O)[nH]c2c1`, the survival is inactive: 73%.
Consider `O=C(NCc1ccccc1)N1CCc2c(sc3c2CCCC3)C1c1ccccc1` (stereo not drawn), for which the survival was inactive: 78%.
For the molecule `Cc1cccc(-n2ncc3c(N4CCN(CCO)CC4)ncnc32)c1`, the survival was inactive: 82%.
Next, `Cc1ccc(Cl)cc1NC(=O)N1CCc2cc(S(=O)(=O)N3CCC(C)CC3)ccc21`: inactive: 71%; `CCc1ccc2[nH]c(=O)c(CNC3CCCC3)cc2c1`: inactive: 107%; `CCOc1ccc(C(=O)Nc2ccc3nc(SCC(=O)N(C)c4ccccc4)sc3c2)cc1`: inactive: 78%.
For `CCOC(=O)c1cc(-c2ccc(OC)cc2)n(CCC(=O)Nc2ccc(OC)cc2OC)c1C`, the survival is inactive: 75%.
With `COc1ccccc1CNC(=O)c1ccc(Nc2nc3ccccc3n3nnnc23)cc1`, the survival is inactive: 66%.
Next, `CCOc1ccc(/C=C/c2nc3ccccc3n2S(=O)(=O)c2cccc(Cl)c2)cc1`: inactive: 57%; `COc1cccc(-c2nc(SCC(=O)NC3CCCC3)c(-c3ccc(F)cc3)[nH]2)c1`: inactive: 84%.
As for `CC1CCN(S(=O)(=O)c2ccc3nc(Nc4cccc(C(F)(F)F)c4)ccc3c2)CC1`, the figure is inactive: 59%; as for `CC(C)c1ccc(/C=C(\C#N)c2nc(-c3cc4ccccc4oc3=O)cs2)cc1`, inactive: 76%; as for `COc1cc(Cl)c(C)cc1NS(=O)(=O)c1c(C)nc2sccn2c1=O`, inactive: 86%.
Take `COC(=O)c1ccc(Nc2ncnc3c2cnn3-c2ccccc2)cc1`: the survival is inactive: 90%.
`COc1ccc(C2=C(C)C(=O)N(Cc3ccc(C(=O)Nc4ccc(C)c(C)c4)cc3)S2(=O)=O)cc1`: the survival was inactive: 112%.
For the molecule `CCOc1ccccc1NC(=O)C1=C(C)Nc2ncnn2C1c1ccccn1` (stereo not drawn), the survival is inactive: 19%.
In the case of `CCOC(=O)CCn1cnc2onc(-c3ccccc3Cl)c2c1=O`, the survival was inactive: 119%.
Turning to `COc1cc(-c2nnc(SCC(=O)Oc3ccc(C)cc3C)o2)cc(OC)c1OC`, the survival is inactive: 82%.
For `Cc1ccc(CNC(=O)c2nc(S(=O)(=O)Cc3ccc(C)cc3)ncc2Cl)cc1`, the survival was inactive: 77%.
`CCOC(=O)C1(C)C=C(Nc2cccc(C)c2)C(=O)N1c1ccccc1` (stereo not drawn): the survival was inactive: 51%.
As for `COc1ccc(NC(=O)CN(c2ccccc2OC)S(C)(=O)=O)c(OC)c1`, the figure is inactive: 70%.
As to `COC(=O)CCCCC1SCC2NC(=O)NC21` (stereo not drawn), the survival was inactive: 90%.
Regarding `COc1cc(NC(=O)CCc2c(C)nc3c4c(C)cc(C)nc4nn3c2C)cc(OC)c1`, the survival was inactive: 89%.
`Cc1cc(C)cc(NC(=O)CCCn2nc(C)c3c(C)n(-c4ccccc4)nc3c2=O)c1`: the survival was inactive: 66%.
With `O=C1c2[nH]nc(-c3ccccc3O)c2C(c2ccc(Cl)cc2)N1CCc1ccccc1` (stereo not drawn), the survival was active: 4%.
For the molecule `Cn1c(=O)cc(OCC(=O)N2CCN(c3ccc(F)cc3)CC2)c2ccccc21`, the survival was inactive: 66%.
`CCOCN(C(=O)Cn1c(CC(C)C)nc2ccccc21)c1c(C)cccc1CC`: the survival is active: 5%.
As for `CCOc1ccccc1Nc1ncnc2c1c(-c1ccccc1)cn2-c1ccc(OC)cc1`, the survival was inactive: 119%.
Turning to `CC(C)c1ccc(NC(=O)C(NS(=O)(=O)c2ccc3c(c2)CCC(=O)N3)c2ccccc2)cc1` (stereo not drawn), the survival is inactive: 68%.
On to `COc1cc(OC)cc(-c2cc3nc(C)c(CCC(=O)Nc4ccc(F)c(Cl)c4)c(C)n3n2)c1`, for which the survival was inactive: 84%.
For `CCc1ccc(NC(=O)N(Cc2cn(CC)c3ccccc23)C2CCCCC2)cc1`, the survival was active: 0%.
As to `Cc1c(Cl)cccc1NC(=O)C(C)N(c1ccccc1)S(C)(=O)=O` (stereo not drawn), the survival is inactive: 70%.
Consider `Cc1cc(C)cc(NC(=O)c2ncn(-c3ccccc3)n2)c1`, for which the survival is inactive: 74%.
As for `O=C(CSCc1cnn(-c2ccccc2)c1-n1cccc1)NCc1ccccc1Br`, the figure is inactive: 123%.
